# Measurements from the supplement of paper PMC3334620.
# The full ranking holds about 33,000 sequences; the median of “E-score (-0.5 to 0.5)” is about -0.054, and the highest 2% start at about 0.39. Some of the results follow.
# Target: Ylr278c (UniProt Q05854)
# Assay: PBM E-score (8-mer binding enrichment) (E-score (-0.5 to 0.5)); higher = stronger / more preferred TF binding; most listed sequences are background and not binding sites
# Settings: protein concentration: 200 nM; construct: GST-DNA-binding domain
# Method in brief: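 Yeast transcription factors, full-length or as DNA-binding domains, were expressed with a GST tag using PURExpress in vitro transcription/translation. At about 100-200 nM they were applied to universal all-10-mer Agilent arrays, double-stranded by primer extension on fresh or once-stripped slides. Fluorescent anti-GST detected bound protein, and masliner normalised the scans. E-scores for ungapped eight-base words, pooled with reverse complements, came from the Universal PBM Analysis Suite.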
row,Sequence,PBM E-score
1,CGAGTACA,0.0348
2,ACCAACAC,-0.124
3,CCGTCCAA,0.124
4,AAAACAAC,-0.209
5,CAGGTTGA,-0.124
6,CCTCCATC,-0.232
7,CACATAGG,-0.127
8,AAAATAAG,-0.139
9,ATTGCTTC,0.0619
10,CGAACGCA,0.106
11,GCGCCTCA,0.112
12,ATCGCGGC,0.275
13,CCATGCAG,-0.192
14,ACATTTCT,0.0273
15,AGGGCAAC,-0.0713
16,CACTCAAG,-0.321
17,AACCGGCA,0.215
18,CCCTTAAA,-0.171
19,ATTTCCAG,0.0814
20,CCCATATC,0.021
21,GCTTCTAA,-0.246
22,CGCAACAA,0.0125
23,CAAAGTTA,-0.0735
24,ATCTTAAT,-0.187
25,CTGGTTAC,-0.169

row,Sequence,PBM E-score
1,CAAGCGAA,-0.071
2,ATTTGGGG,0.0181
3,TCGGCCCA,0.186
4,GGCTCGGA,0.38
5,GAGGCGAC,-0.103
6,AGCAACTA,-0.0189
7,CCTTAGTC,-0.103
8,TCGTTACA,-0.237
9,GGTAGGGA,-0.0785
10,AAGGCCGG,0.434
11,GCTTAGAA,-0.11
12,AATCCATC,-0.141
13,CTGTAGCA,-0.187
14,TCGCTGCA,-0.143
15,CTGGATTA,0.218
16,TTACACAA,-0.0144
17,CTGTAGAC,-0.066
18,ATACTCGA,-0.244
19,CGCGCGCG,0.226
20,CACGGAAG,0.228
21,GAGCGCGA,0.117
22,AACGTAGC,-0.227
23,ATGACTTA,-0.154
24,GCTGCTCC,0.167
25,CGCCGTCA,0.196

row,Sequence,PBM E-score
1,TCCGCTAA,0.267
2,ACCCTTCT,-0.172
3,CGCTGTAC,0.164
4,ACATGGGC,-0.0183
5,TAGGCAGA,-0.0968
6,GCTGGGCA,-0.184
7,AGGTCCTC,0.0208
8,AGCGTGAA,-0.331
9,GAGTGATC,-0.0431
10,ATTTACGA,-0.0425
11,ATCTGACC,0.0465
12,AAGACCGC,0.173
13,ACCAACTA,-0.106
14,TCCGGAGA,0.483
15,CATCATCG,0.0849
16,CCACCTAG,-0.143
17,ATGAACTA,-0.104
18,GATGGTGC,-0.293
19,AGGTGCTA,-0.138
20,ATACGTGA,-0.23
21,CCCAGCCA,-0.186
22,ATGTCTAG,-0.299
23,CCTCGGTA,-0.0307
24,ACGTCTTC,-0.0827
25,ACCTATGC,-0.125

row,Sequence,PBM E-score
1,CGCGTTAG,-0.0029
2,ACCCCAGC,0.0351
3,ATTACGAA,-0.0647
4,CCCGACAG,0.192
5,ACGCAAAC,-0.192
6,CGGCATAG,0.202
7,TATTTTAA,-0.0522
8,CCCATCAG,-0.225
9,AGGCCGGC,0.342
10,CCCGTTAG,0.0463
11,ATATGAAT,0.0231
12,TCTCAAGA,-0.0861
13,CGTATGGC,-0.233
14,GTCTTGGA,-0.0512
15,CCGCGCCC,0.191
16,AAGAGTAC,-0.15
17,AATAGAGC,-0.104
18,GGCCCGGA,0.395
19,CGAGGTCA,-0.0727
20,GCTCCCGA,0.0641
21,CAAAATCA,-0.0575
22,CGGTGTAG,0.163
23,ATAGTACA,0.027
24,AGCTGCGC,-0.0223
25,AGGGAAGG,-0.13

row,Sequence,PBM E-score
1,TAAATCTA,-0.154
2,CCATTCTC,0.0544
3,ACTTGCGC,-0.0351
4,AAGCATCA,-0.102
5,ACCACTTC,0.0505
6,AACGCAAT,-0.0137
7,CGATACTC,0.162
8,CCGTGAGG,0.0292
9,CCCAGGCA,-0.238
10,AGACGTAC,-0.118
11,AACCTCTC,-0.149
12,AACGGCCG,0.257
13,ACACCTAT,-0.161
14,TGTTAGAA,-0.207
15,GTAACTTA,-0.146
16,GGTTTCAC,0.0826
17,GGCTGGGA,-0.0666
18,GCCTCTCA,-0.058
19,CATCCCGA,0.262
20,GTATAAAA,0.241
21,TCGTTAGA,-0.063
22,CTGTTGGC,-0.148
23,AGTTCTAT,-0.0585
24,ATGCGGAG,0.385
25,ACAACATG,-0.136

row,Sequence,PBM E-score
1,ACGAGTGA,-0.197
2,AGTGACCA,-0.0629
3,GGCGCGAA,0.128
4,GTGAACAC,-0.0874
5,ATATATTA,-0.0697
6,TCTTAGCA,-0.0944
7,AGTAAGTG,-0.128
8,CGCGCGAC,0.154
9,TCCGAACA,0.429
10,AAAGGGGA,-0.125
11,ACACTGTG,-0.214
12,ACACGCAC,-0.0819
13,CAGAAGGG,-0.252
14,GACACACA,-0.103
15,ATCCGCCC,0.291
16,ACGCCACG,0.0245
17,CCGCCAGA,0.107
18,CACGCAAC,0.0827
19,AACACCTA,-0.251
20,ACGGTCAC,-0.0537
21,CCCATGCC,0.119
22,CAGCAGCC,-0.273
23,CGTACCAC,-0.105
24,GCTACCCC,-0.00088
25,CCCACGAA,-0.118

row,Sequence,PBM E-score
1,CTTAGGAC,-0.291
2,TACTAGCA,-0.189
3,AGTGTTTG,-0.121
4,TCCAGTAA,-0.156
5,AGCTACAC,-0.159
6,CGGCTGAC,0.136
7,CTTCTCGC,0.145
8,ACGAATCG,0.0123
9,CGGTTGCA,-0.0906
10,CGGAGCCG,0.427
11,GATACAGA,-0.0585
12,AGCGAACG,-0.128
13,ATTTCGCC,0.193
14,CGTTTCTA,-0.0853
15,ATCATGAG,-0.164
16,GATACCTA,-0.0272
17,CATGCCAG,-0.19
18,GTTCTCTA,-0.0525
19,CGCTTAGA,-0.192
20,GAAGGTGC,-0.0969
21,AAACCCTT,-0.042
22,GATATCTA,-0.268
23,CATCGCCA,0.0769
24,ACGATGTC,-0.0905
25,AGCGTTAT,-0.0958

row,Sequence,PBM E-score
1,CCAAGATA,-0.0962
2,AACTGGCC,0.0711
3,ACATTTAG,-0.304
4,TCGATCGA,0.112
5,AATCCTGG,-0.0892
6,GATAGGTA,0.00262
7,GCTCGCGA,0.0526
8,CGCCGTGC,0.208
9,AACCGATC,0.0411
10,GTCACATA,-0.0936
11,CATCTCAC,-0.145
12,CTCTCTCA,-0.176
13,CTCCGGCC,0.455
14,CACACACC,0.0916
15,AAGGATTG,-0.126
16,ACATCGTG,-0.117
17,AGCACCAA,-0.0764
18,CCATCCGC,0.1
19,AAGTTTGT,-0.0818
20,CGGATCAC,0.301
21,GCCTTACA,-0.196
22,AGACAGCC,-0.16
23,TATACGGA,0.235
24,CCCTTTAA,-0.0852
25,AAGTTCTC,0.0789

row,Sequence,PBM E-score
1,AGTAAGCG,-0.0246
2,CCACCGTC,0.0404
3,TATGCTAA,-0.135
4,AAGTACCG,0.218
5,CACGCCTG,-0.263
6,CTGAACGA,-0.255
7,ATGCCGTA,0.0761
8,CGCATTGC,0.0491
9,ATCGAAGA,0.0299
10,GCCCCCAC,-0.0702
11,CTCCTCTC,-0.259
12,TACAGCCA,-0.218
13,TTCCACAA,0.022
14,CGTAATAA,-0.14
15,ACGAGGAC,-0.0432
16,CGCACTAA,0.179
17,CGTATCGC,0.0729
18,CCTCAAGG,-0.229
19,TGGCGTAA,-0.219
